Source: the supplement of paper PMC12889115
The other results are listed elsewhere or left out. Rule as the data show it: active = 25% or less and inactive = the rest. Most values come without repeats; read them as rough.

tested on: Salmonella enterica serovar Typhimurium SL1344; experiment: intramacrophage bacterial GFP load (SAFIRE), percent of DMSO control (% of DMSO); higher = more intracellular bacteria (less inhibition); conditions: 25 µM; system: infected RAW 264.7 macrophages
Description: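 Secondary screen of the 553 primary hits at 25 µM. (i) S. Typhimurium SL1344 grown in Mueller-Hinton broth with 0.5 µg/mL polymyxin B, OD600 read after 18 h. (ii) SAFIRE assay: RAW 264.7 macrophages infected with S. Typhimurium sifB::gfp (MOI 30); compound added 2 h post-infection; cells fixed at 18 h; GFP-positive pixel fraction per macrophage imaged by confocal microscopy and expressed as % of DMSO control.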
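Also: compounds tested were the hits of an earlier 50 µM broth growth screen of a drug-like diversity library run with polymyxin B.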

Intramacrophage bacterial GFP load, inactive:
OCC1CCCCN1c1ccc(-c2nc(CCc3ccccc3)no2)cn1 (stereo not given) 101
CC(C)Cc1ccc(C(=O)N2CCCC(CNC(=O)c3ccc(F)cc3)C2)cc1 (stereo not given) 74.4
CN(Cc1ccc2nccnc2c1)C(=O)CC1(c2ccc(-c3ccccc3)cc2)CC(=O)N(C)C1=O (stereo not given) 111
CC(=O)Nc1ccc(C(=O)N2CCCC(Nc3cccc(F)c3)C2)cc1 (stereo not given) 184
CCOC(=O)C1(CCc2ccccc2)CCN(C(=O)c2occc2C)CC1 29.8
O=C(Nc1ccc(-c2cccc(F)c2)cc1)C1CCCN(C(=O)Cc2ccccn2)C1 (stereo not given) 55.7
CCOC(=O)C1(CCCc2ccccc2)CCN(C(=O)Cc2cccnc2)CC1 25.1
COC(=O)c1ccc(CN2CCOc3ccc(C(C)(O)COc4ccccc4)cc3C2)cc1 (stereo not given) 93.5
CCOC(=O)C1(Cc2ccc(F)cc2)CCCN(C(=O)c2cn3c(C)cccc3n2)C1 (stereo not given) 51.6
Cc1cccc(C(=O)NCc2nc(-c3ccccc3NC(=O)CC3CCCC3)oc2C)n1 147
Cc1csc(SCC(=O)N2CCC3(CC2)CC3C(=O)NCCc2nc3ccccc3n2C)n1 (stereo not given) 112
Cc1cc(-c2cc(F)cc3c2OC(CNC(=O)c2ccoc2)C3)ccc1F (stereo not given) 201
Cc1cc(OCc2cc(C(=O)N(C)Cc3ccccn3)no2)cc(C)c1Cl 124
O=C(c1cccc(Cl)c1)C1CCCN(C(=O)Nc2ccc3c(c2)OCO3)C1 (stereo not given) 162
CCc1noc(C)c1C(=O)N1CCC(CCC(=O)N2CCC(Cc3ccccc3)CC2)CC1 69.3
Cc1ccccc1-c1noc(-c2ccc(N[C@H]3CC[C@H](O)CC3)nc2)n1 173
c1ccc(CCCc2noc(-c3ccc(N4CCCO4)nc3)n2)cc1 106
O=C(CN1CC(c2ccccc2)CC1=O)NCCN1Cc2ccccc2OC(c2ccccc2F)C1 (stereo not given) 36.2
COCCCN1C(=O)CC(CC(=O)NCc2cc(F)cc(C(F)(F)F)c2)(c2ccccc2C)C1=O (stereo not given) 122
CN(CCc1ccccc1)C(=O)CC1(c2ccccc2)CC(=O)N(Cc2ccc3c(c2)OCO3)C1=O (stereo not given) 116
O=C(c1cn(Cc2ccc(F)cc2)nn1)N1CCCC1c1nc2ccccc2s1 (stereo not given) 104
CN1C(=O)CC(CC(=O)N2CCCC(C(=O)c3nccn3C)C2)(c2ccc(-c3ccccc3)cc2)C1=O (stereo not given) 50.6
O=C(CC1(c2ccccc2F)CC(=O)N(C2CCCC2)C1=O)N(CC1CCC1)CC1CCCO1 (stereo not given) 144
CN(C)c1ccccc1C(=O)N1CCCC(CO)(Cc2cccc(Cl)c2)C1 (stereo not given) 72.2
CN(C)C1(C(=O)N2CCCC2c2ccc(F)cc2)Cc2ccccc2C1 (stereo not given) 34.2
CCOC(=O)C1(Cc2ccccc2C)CCCN(C(=O)c2cc(C3CC3)n[nH]2)C1 (stereo not given) 63.6
O=C(CC1(c2ccc(-c3ccccc3)cc2)CC(=O)N(C2CC2)C1=O)N(CCO)Cc1ccccc1 (stereo not given) 95.6
COc1cc(CN2Cc3cc(Cl)ccc3OC(C)C2)cc2c1OCO2 (stereo not given) 44
COc1ccc(Cl)cc1NC(=O)CCC1CCCN(C(=O)CC2CCCC2)C1 (stereo not given) 31.5
CCCN(CC1CC1)C(=O)CC1(c2ccc(-c3ccccc3)cc2)CC(=O)N(C2CC2)C1=O (stereo not given) 49.3
O=C(/C=C/c1ccccc1)N1CCCC(c2nc(-c3ccncc3)ncc2-c2ccccc2)C1 (stereo not given) 81.1
CCCCn1c(CN2CCCCC2c2ccc(F)cc2)cnc1S(=O)(=O)CC (stereo not given) 34.8
Cc1ccc(CN(C)C(=O)CC2(c3ccccc3)CC(=O)N(CCCOc3cccnc3)C2=O)cc1 (stereo not given) 37.5
Cc1nc(C(=O)NCc2nc(-c3ccccc3NC(=O)CC3CCCC3)oc2C)cs1 130
O=C(c1cn(CC2COc3ccccc3O2)nn1)N1CCC2(C=Cc3ccccc32)CC1 (stereo not given) 105
COCCCN1C(=O)CC(CC(=O)N2CCC(Cc3ccccc3)CC2)(c2ccccc2OC)C1=O (stereo not given) 58.6

Intramacrophage bacterial GFP load, active:
CCCCn1c(CN2CCC(C(O)CC)CC2)cnc1S(=O)(=O)CCCC(C)C (stereo not given) 11.9
COc1cccc(CC(C2CCN(C(=O)/C=C/c3ccccc3F)CC2)N(C)C(=O)CC(C)C)c1 (stereo not given) 12.7
O=C(c1coc(COc2cccc(F)c2)n1)N1CC[C@@H]2CCCC[C@H]2C1 8.5
Cc1oc(-c2cccc(Oc3ccccc3)c2)nc1CN1CCN(c2cnccn2)CC1 14
